Reference: publication PMC4336329 (PLoS ONE, 2015)
Out of some 310,000 compounds screened, about 14,000 (4.5%) showed an effect of 50% or more. Effects have a minus sign here. Some of the results follow.

Molecular target: human ether-à-go-go-related gene (hERG) potassium channel (human, UniProt Q12809)
Assay: primary screen, population patch clamp on CHO cells stably expressing hERG
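Also: peak tail current of the secondary pulse compared with the same well before compound.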

Sequence of human ether-à-go-go-related gene (hERG) potassium channel (Q12809 whole entry, looked up): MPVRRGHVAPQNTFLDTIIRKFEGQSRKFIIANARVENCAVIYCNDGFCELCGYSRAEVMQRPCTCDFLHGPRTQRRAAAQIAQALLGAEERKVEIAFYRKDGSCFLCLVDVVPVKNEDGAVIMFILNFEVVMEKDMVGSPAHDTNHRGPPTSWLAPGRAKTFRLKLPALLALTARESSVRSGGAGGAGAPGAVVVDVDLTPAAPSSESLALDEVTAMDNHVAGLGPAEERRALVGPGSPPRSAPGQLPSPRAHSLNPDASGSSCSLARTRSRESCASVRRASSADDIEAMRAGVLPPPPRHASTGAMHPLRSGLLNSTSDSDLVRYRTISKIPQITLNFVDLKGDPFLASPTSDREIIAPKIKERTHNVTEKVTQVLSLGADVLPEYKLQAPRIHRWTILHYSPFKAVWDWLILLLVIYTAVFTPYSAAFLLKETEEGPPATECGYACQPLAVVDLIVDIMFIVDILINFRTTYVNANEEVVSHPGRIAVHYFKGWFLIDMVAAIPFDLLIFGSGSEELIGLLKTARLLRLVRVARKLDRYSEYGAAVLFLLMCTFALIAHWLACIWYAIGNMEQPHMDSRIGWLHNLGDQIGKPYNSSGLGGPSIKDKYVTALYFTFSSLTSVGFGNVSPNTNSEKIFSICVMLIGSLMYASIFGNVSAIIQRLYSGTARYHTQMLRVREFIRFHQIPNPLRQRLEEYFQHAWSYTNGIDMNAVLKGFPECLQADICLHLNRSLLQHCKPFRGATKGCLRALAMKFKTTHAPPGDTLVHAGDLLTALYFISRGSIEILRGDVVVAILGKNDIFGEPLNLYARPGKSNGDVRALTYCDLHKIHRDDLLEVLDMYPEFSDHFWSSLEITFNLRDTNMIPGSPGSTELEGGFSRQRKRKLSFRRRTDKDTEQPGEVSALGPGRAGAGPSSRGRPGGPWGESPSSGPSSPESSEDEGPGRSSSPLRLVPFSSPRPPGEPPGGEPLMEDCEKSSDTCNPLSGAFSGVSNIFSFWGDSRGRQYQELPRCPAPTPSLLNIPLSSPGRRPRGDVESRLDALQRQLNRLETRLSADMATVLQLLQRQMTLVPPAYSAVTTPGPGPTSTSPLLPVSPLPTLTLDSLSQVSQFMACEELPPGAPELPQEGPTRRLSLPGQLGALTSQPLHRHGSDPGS

Row | SMILES | hERG current change (%, negative = inhibition) at 10uM
1 | COc1ccc(C(=O)N2CCC(C(=O)Nc3cccc(C)c3)CC2)cc1OC | -38.9%
2 | CCOC(=O)N1CCN(S(=O)(=O)c2cc(OCC(N)=O)c(C)cc2Cl)CC1 | -1.36%
3 | O=C(COc1ncnc2c(Cl)cc(Cl)cc12)N1CCCCC1 | -8.38%
4 | Cl.NCCS | 14.9%
5 | NC(=O)c1cccnc1Nc1ccccc1F | 0.0995%
6 | Cc1c(C#N)c(O)[nH]c(=O)c1N=Nc1ccc(Br)cc1C(=O)O | 18.9%
7 | CSCCC(NC(=O)c1ccccc1Br)C(=O)NCC(c1ccco1)N1CCCCC1 (stereo not drawn) | -40.5%
8 | Nc1c(C(=O)Nc2ccccc2F)sc2nc(Cc3ccccc3)cc(C(F)(F)F)c12 | 2.41%
9 | O=C(Nc1ccc(Cl)c(Cl)c1)N1CCC(N2CCCCC2)CC1 | -63.5%
10 | O=C(Nc1ccccc1C(=O)Nc1ccccc1)c1ccco1 | 8.99%
11 | COc1ccc(N2CCN(C(=O)c3ccc(SC)cc3OC)CC2)cc1 | -55.3%
12 | CCO[C@H]1OC(C(=O)NCc2ccccc2)=C[C@@H](c2cn(C(C)=O)c3ccccc23)[C@@H]1CCCO | -64.3%
13 | CC(/C=N/n1c(-c2ccc(C)cc2)n[nH]c1=S)=C\c1ccco1 | 12.5%
14 | COc1cc2c(cc1OC)CN(C(=O)/C=C/c1cccc([N+](=O)[O-])c1)CC2 | -31.2%
15 | O=C(NC(Cc1ccccc1)C(=O)O)/C(=C/c1ccco1)NC(=O)c1cccc([N+](=O)[O-])c1 (stereo not drawn) | 24%
16 | COc1cc(C2C(C#N)=C(N)OC3=C2C(=O)CCC3)cc(OC)c1OC(=O)N1CCOCC1 (stereo not drawn) | -17.7%
17 | CCC(C)Nc1nc(OCC(F)(F)F)nc(OCC(F)(F)F)n1 (stereo not drawn) | 2.17%
18 | COc1ccc(Oc2nc3ccccc3nc2C(F)(F)F)cc1 | -12%
19 | NC(=O)c1cc(Cl)ccc1OCC(=O)N1CCCc2ccccc21 | 11.4%
20 | Nc1c(-c2cccc(Cl)c2)cnn1-c1cccc(C(F)(F)F)c1 | -3.38%
21 | Cc1cc(C(=O)N/N=C2\CCCC(C)C2)n[nH]1 (stereo not drawn) | 11%
22 | CCCSc1ccc(-c2nn(-c3ccccc3)cc2/C=C(/C#N)C(=O)N2CCOCC2)cc1 | 9.39%
23 | COC(=O)c1cc(C(=O)c2cccc(Cl)c2Cl)cn1C | -43.4%
24 | C/C(=N\NC(=O)COc1ccc(C(C)(C)C)cc1)c1ccc(N2CCOCC2)cc1 | 5.99%
